# Laboratory results taken from the supplement of paper PMC8728848.
# This is one part of the list.
# B1: SSR1 (Sclerotium rolfsii), A0A0M3KL30 (protein)
# chain: TYKITVRVYQTNPDAFFHPVEKTVWKYANGGTWTITDDQHVLTMGGSGTSGTLRFHADNGESFTATFGVHNYKRWCDIVTNLAADETGMVINQQYYSQKNREEARERQLSNYQVKNAKGRNFQIVYTEAEGNDLHANLIIG
# Columns and labels:
# Test in all cases: glycan array binding signal (z-score within array); higher = stronger binding
# Conditions in all cases: glycan notation: IUPAC condensed, linker removed
# [1] = biological target: Fuc(a1-2)[GalNAc(a1-3)]Gal(b1-3)GlcNAc(b1-3)GalNAc
# Procedure, shortened: (§1)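 The binding signal is a Z-score computed within each array. Data were drawn from 3228 arrays in the Consortium for Functional Glycomics database, restricted to those with a known protein sequence. Scores were averaged over arrays of the same protein sequence at different concentrations or buffers, and over linkers, and negative values can be taken as non-binding.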
# [2] = biological target: Fuc(a1-2)[GalNAc(a1-3)]Gal(b1-3)GlcNAc(b1-6)GalNAc
# Procedure, shortened: as §1
# [3] = biological target: Fuc(a1-2)[GalNAc(a1-3)]Gal(b1-4)Glc
# Procedure, shortened: as §1
# [4] = biological target: Fuc(a1-2)[GalNAc(a1-3)]Gal(b1-4)GlcNAc
# Procedure, shortened: as §1
# [5] = biological target: Fuc(a1-2)[GalNAc(a1-3)]Gal(b1-4)GlcNAc(b1-2)Man
# Procedure, shortened: as §1
# [6] = biological target: Fuc(a1-2)[GalNAc(a1-3)]Gal(b1-4)GlcNAc(b1-2)Man(a1-3)[Fuc(a1-2)[GalNAc(a1-3)]Gal(b1-4)GlcNAc(b1-2)Man(a1-6)]Man(b1-4)GlcNAc(b1-4)GlcNAc
# Procedure, shortened: as §1
# [7] = biological target: Fuc(a1-2)[GalNAc(a1-3)]Gal(b1-4)GlcNAc(b1-2)Man(a1-3)[Fuc(a1-2)[GalNAc(a1-3)]Gal(b1-4)GlcNAc(b1-2)Man(a1-6)]Man(b1-4)GlcNAc(b1-4)[Fuc(a1-6)]GlcNAc
# Procedure, shortened: as §1
# [8] = biological target: Fuc(a1-2)[GalNAc(a1-3)]Gal(b1-4)GlcNAc(b1-3)Gal(b1-4)GlcNAc
# Procedure, shortened: as §1
# [9] = biological target: Fuc(a1-2)[GalNAc(a1-3)]Gal(b1-4)GlcNAc(b1-3)Gal(b1-4)GlcNAc(b1-3)Gal(b1-4)GlcNAc
# Procedure, shortened: as §1
# [10] = biological target: Fuc(a1-2)[GalNAc(a1-3)]Gal(b1-4)GlcNAc(b1-3)GalNAc
# Procedure, shortened: as §1
# [11] = biological target: Fuc(a1-2)[GalNAc(a1-3)]Gal(b1-4)GlcNAc(b1-3)[Fuc(a1-2)[GalNAc(a1-3)]Gal(b1-4)GlcNAc(b1-6)]GalNAc
# Procedure, shortened: as §1
# [12] = biological target: Fuc(a1-2)[GalNAc(a1-3)]Gal(b1-4)GlcNAc(b1-6)GalNAc
# Procedure, shortened: as §1
# [13] = biological target: Fuc(a1-2)[GalNAc(a1-3)]Gal(b1-4)[Fuc(a1-3)]GlcNAc
# Procedure, shortened: as §1
# [14] = biological target: Fuc(a1-2)[GalNAc(a1-3)]Gal(b1-4)[Fuc(a1-3)]GlcNAc(b1-3)GalNAc
# Procedure, shortened: as §1
# [15] = biological target: Fuc(a1-2)[GalNAc(a1-4)]Gal(b1-4)GlcNAc
# Procedure, shortened: as §1
# [16] = biological target: Fuc(a1-2)[GalNAc(b1-3)]Gal
# Procedure, shortened: as §1
# Fuc(a1-3)GlcNAc = biological target: Fuc(a1-3)GlcNAc
# Procedure, shortened: as §1
# [17] = biological target: Fuc(a1-3)[Gal(b1-4)]Glc6S
# Procedure, shortened: as §1
# [18] = biological target: Fuc(a1-3)[Gal(b1-4)]GlcNAc
# Procedure, shortened: as §1
# [19] = biological target: Fuc(a1-3)[Gal(b1-4)]GlcNAc(b1-2)Man
# Procedure, shortened: as §1
# [20] = biological target: Fuc(a1-3)[Gal(b1-4)]GlcNAc(b1-2)Man(a1-3)[Fuc(a1-3)[Gal(b1-4)]GlcNAc(b1-2)Man(a1-6)]Man(b1-4)GlcNAc(b1-4)GlcNAc
# Procedure, shortened: as §1
# [21] = biological target: Fuc(a1-3)[Gal(b1-4)]GlcNAc(b1-2)Man(a1-3)[Fuc(a1-3)[Gal(b1-4)]GlcNAc(b1-2)Man(a1-6)]Man(b1-4)GlcNAc(b1-4)[Fuc(a1-6)]GlcNAc
# Procedure, shortened: as §1
# [22] = biological target: Fuc(a1-3)[Gal(b1-4)]GlcNAc(b1-3)Gal(b1-3)[Fuc(a1-4)]GlcNAc
# Procedure, shortened: as §1
# [23] = biological target: Fuc(a1-3)[Gal(b1-4)]GlcNAc(b1-3)Gal(b1-4)[Fuc(a1-3)]GlcNAc
# Procedure, shortened: as §1
# [24] = biological target: Fuc(a1-3)[Gal(b1-4)]GlcNAc(b1-3)Gal(b1-4)[Fuc(a1-3)]GlcNAc(b1-3)Gal(b1-4)[Fuc(a1-3)]GlcNAc
# Procedure, shortened: as §1
# [25] = biological target: Fuc(a1-3)[Gal(b1-4)]GlcNAc(b1-3)GalNAc
# Procedure, shortened: as §1
# [26] = biological target: Fuc(a1-3)[Gal(b1-4)]GlcNAc(b1-6)GalNAc
# Procedure, shortened: as §1
# [27] = biological target: Fuc(a1-3)[Gal(b1-4)]GlcNAc(b1-6)[Gal(b1-3)GlcNAc(b1-3)]Gal(b1-4)Glc
# Procedure, shortened: as §1
# [28] = biological target: Fuc(a1-3)[Gal(b1-4)]GlcNAc6S
# Procedure, shortened: as §1
# [29] = biological target: Fuc(a1-3)[Gal3S(b1-4)]Glc
# Procedure, shortened: as §1
# [30] = biological target: Fuc(a1-3)[Gal3S(b1-4)]GlcNAc
# Procedure, shortened: as §1
# [31] = biological target: Fuc(a1-3)[Gal3S(b1-4)]GlcNAc6S
# Procedure, shortened: as §1
# [32] = biological target: Fuc(a1-3)[GalNAc(b1-4)]GlcNAc
# Procedure, shortened: as §1
# [33] = biological target: Fuc(a1-3)[GalNAc(b1-4)]GlcNAc6S
# Procedure, shortened: as §1
# Fuc(a1-4)GlcNAc = biological target: Fuc(a1-4)GlcNAc
# Procedure, shortened: as §1
# Fuc(b1-3)GlcNAc = biological target: Fuc(b1-3)GlcNAc
# Procedure, shortened: as §1
# Gal(a1-2)Gal = biological target: Gal(a1-2)Gal
# Procedure, shortened: as §1
# Gal(a1-3)Gal = biological target: Gal(a1-3)Gal
# Procedure, shortened: as §1
# Gal(a1-3)Gal(b1-3)GlcNAc = biological target: Gal(a1-3)Gal(b1-3)GlcNAc
# Procedure, shortened: as §1
# [34] = biological target: Gal(a1-3)Gal(b1-3)GlcNAc(b1-2)Man
# Procedure, shortened: as §1
# [35] = biological target: Gal(a1-3)Gal(b1-3)GlcNAc(b1-2)Man(a1-3)[Gal(a1-3)Gal(b1-3)GlcNAc(b1-2)Man(a1-6)]Man(b1-4)GlcNAc(b1-4)GlcNAc
# Procedure, shortened: as §1
# [36] = biological target: Gal(a1-3)Gal(b1-3)GlcNAc(b1-3)GalNAc
# Procedure, shortened: as §1
# [37] = biological target: Gal(a1-3)Gal(b1-3)GlcNAc(b1-6)GalNAc
# Procedure, shortened: as §1
# [38] = biological target: Gal(a1-3)Gal(b1-3)[Fuc(a1-4)]GlcNAc(b1-2)Man(a1-3)[Gal(a1-3)Gal(b1-3)[Fuc(a1-4)]GlcNAc(b1-2)Man(a1-6)]Man(b1-4)GlcNAc(b1-4)GlcNAc
# Procedure, shortened: as §1
# Gal(a1-3)Gal(b1-4)Glc = biological target: Gal(a1-3)Gal(b1-4)Glc
# Procedure, shortened: as §1
binder,measurement,setting,value
B1,glycan array binding signal (z-score),[1],-0.32
same,glycan array binding signal (z-score),[2],-0.202
same,glycan array binding signal (z-score),[3],-0.322
same,glycan array binding signal (z-score),[4],0.001
same,glycan array binding signal (z-score),[5],0.194
same,glycan array binding signal (z-score),[6],0.358
same,glycan array binding signal (z-score),[7],-0.288
same,glycan array binding signal (z-score),[8],0.292
same,glycan array binding signal (z-score),[9],0.332
same,glycan array binding signal (z-score),[10],0.683
same,glycan array binding signal (z-score),[11],0.501
same,glycan array binding signal (z-score),[12],0.463
same,glycan array binding signal (z-score),[13],-0.302
same,glycan array binding signal (z-score),[14],-0.311
same,glycan array binding signal (z-score),[15],-0.325
same,glycan array binding signal (z-score),[16],-0.304
same,glycan array binding signal (z-score),Fuc(a1-3)GlcNAc,-0.345
same,glycan array binding signal (z-score),[17],-0.347
same,glycan array binding signal (z-score),[18],-0.316
same,glycan array binding signal (z-score),[19],-0.339
same,glycan array binding signal (z-score),[20],-0.34
same,glycan array binding signal (z-score),[21],-0.33
same,glycan array binding signal (z-score),[22],-0.32
same,glycan array binding signal (z-score),[23],-0.32
same,glycan array binding signal (z-score),[24],-0.348
same,glycan array binding signal (z-score),[25],-0.338
same,glycan array binding signal (z-score),[26],-0.33
same,glycan array binding signal (z-score),[27],-0.353
same,glycan array binding signal (z-score),[28],-0.332
same,glycan array binding signal (z-score),[29],-0.333
same,glycan array binding signal (z-score),[30],-0.314
same,glycan array binding signal (z-score),[31],-0.323
same,glycan array binding signal (z-score),[32],-0.327
same,glycan array binding signal (z-score),[33],-0.345
same,glycan array binding signal (z-score),Fuc(a1-4)GlcNAc,-0.281
same,glycan array binding signal (z-score),Fuc(b1-3)GlcNAc,-0.33
same,glycan array binding signal (z-score),Gal(a1-2)Gal,-0.325
same,glycan array binding signal (z-score),Gal(a1-3)Gal,-0.34
same,glycan array binding signal (z-score),Gal(a1-3)Gal(b1-3)GlcNAc,-0.345
same,glycan array binding signal (z-score),[34],-0.345
same,glycan array binding signal (z-score),[35],-0.301
same,glycan array binding signal (z-score),[36],-0.33
same,glycan array binding signal (z-score),[37],0.063
same,glycan array binding signal (z-score),[38],-0.311
same,glycan array binding signal (z-score),Gal(a1-3)Gal(b1-4)Glc,-0.335
